The campaign covered roughly 72,000 compounds. About 1,600 (2.2%) were called active. Calls follow the shape of the dose curve; as a rule, active = well fitted inhibition curve with a large enough effect; inconclusive = small, poorly fitted or top-dose-only effect; inactive = flat fitted curve, though single readings scatter. This is a selection; strong and weak results do not stand in their true shares.
% is scaled to controls: 0 for no effect and ±100 for the full control effect; potency is read from the fitted curve at half-maximal effect.

The target of this test is Luciferin 4-monooxygenase (Photinus pyralis) (UniProt P08659). The test can be described thus: qHTS Assay for Inhibitors of Firefly Luciferase. Also: nearly all actives have a fitted effect of over 40% in size. The note with it: purified firefly luciferase, luminescence, 8 min; series mostly up to 25.5 µM; activity change, negative = inhibition: at the top concentration. How it is done: To aid in the interpretation of high-throughput screening (HTS) results derived from luciferase-based assays, we used quantitative HTS, an approach that defines the concentration-response behavior of each library sample, to profile the ATP-dependent luciferase from Photinus pyralis against more than 72 000 samples. Luciferase (PKLight, Cambrex Corporation) was assayed for its ability to generate light using ATP and luciferin as substrates. The ATP concentration in the assay (10 uM) was within the linear range of enzyme activity for the assay conditions used. See following reference for further details: [1] Auld DS, Southall NT, Jadhav A, Johnson RL, Diller DJ, Simeonov A, Austin CP, Inglese J. Characterization of chemical libraries for luciferase inhibitory activity. J Med Chem. 2008 Apr 24;51(8):2372-86. Auld DS, Zhang YQ, Southall NT, Rai G, Landsman M, Maclure J, Langevin D, Thomas CJ, Austin CP, Inglese J. A Basis for Reduced Chemical Library Inhibition of Firefly Luciferase Obtained from Directed Evolution. J. Med. Chem., 2009, 52 (5), pp 1450#1458 [3] Auld DS, Thorne N, Nguyen DT, Inglese J. A specific mechanism for nonspecific activation in reporter-gene assays. ACS Chem Biol. 2008 Aug 15;3(8):463-70. Auld DS, Thorne N, Maguire WF, Inglese J. Mechanism of PTC124 activity in cell-based luciferase assays of nonsense codon suppression. Proc Natl Acad Sci U S A. 2009 Mar 3;106(9):3585-90. Inglese J, Auld DS, Jadhav A, Johnson RL, Simeonov A, Yasgar A, Zheng W, Austin CP. Quantitative high-throughput screening: a titration-based approach that efficiently identifies biological activities in large chemical libraries. Proc Natl Acad Sci U S A. 2006 Aug 1;103(31):11473-8.
Chain of UniProt P08659 (P08659 whole entry, looked up): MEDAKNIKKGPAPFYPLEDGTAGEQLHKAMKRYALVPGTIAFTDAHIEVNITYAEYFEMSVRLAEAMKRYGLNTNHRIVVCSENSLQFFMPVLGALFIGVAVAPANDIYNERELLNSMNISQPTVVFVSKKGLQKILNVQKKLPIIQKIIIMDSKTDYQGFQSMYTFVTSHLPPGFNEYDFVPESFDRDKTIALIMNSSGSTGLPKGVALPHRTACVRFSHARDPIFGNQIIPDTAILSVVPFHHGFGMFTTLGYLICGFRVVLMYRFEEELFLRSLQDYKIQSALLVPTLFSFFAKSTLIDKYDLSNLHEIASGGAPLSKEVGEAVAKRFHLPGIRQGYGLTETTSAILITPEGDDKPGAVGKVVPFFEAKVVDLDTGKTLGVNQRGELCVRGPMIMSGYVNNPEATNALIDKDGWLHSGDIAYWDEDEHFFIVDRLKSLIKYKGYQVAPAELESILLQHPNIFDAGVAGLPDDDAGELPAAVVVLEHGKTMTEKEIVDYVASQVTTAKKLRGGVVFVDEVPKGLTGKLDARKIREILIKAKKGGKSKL
Four uL of substrate mix (final concentration, 50 mM imidazole pH 7.2, 50 mM KCl, 7 mM MgCl2, 10 uM ATP, 0.01% Tween 20, 0.05% BSA) was dispensed into white 1536 well plates. Twenty-three nL of compound was delivered by a pin tool and 2 uL of luciferase detector mix (PKLight, Cambrex) was added. Following 8-minute incubation at ambient temperature, luminescence was measured by a ViewLux (Perkin Elmer) at 5 seconds exposure/plate.
Turning to `NNC(=O)c1ccncc1`, the “activity change, negative = inhibition” value was inactive: -20.8%.

With `Clc1ccc2c(c1)[C@H]1OCC[C@H]1[C@@H](c1ccco1)N2`, the “activity change, negative = inhibition” value is inactive: -6.87% [at 57.1 µM].

As to `CC(=O)O[C@H]1C(=O)[C@]2(C)[C@H]([C@H](OC(=O)c3ccccc3)[C@]3(O)C[C@H](OC(=O)[C@H](O)[C@@H](NC(=O)c4ccccc4)c4ccccc4)C(C)=C1C3(C)C)[C@]1(OC(C)=O)CO[C@@H]1C[C@@H]2O`, the “activity change, negative = inhibition” value is inactive: 0.287%.

On to `CCOC(=O)c1cnc(-n2nc(C)cc2C)nc1N(C)C`, for which the Potency was active: 12.6 µM.

Turning to `O=c1c(O)c(-c2cc(O)c(O)c(O)c2)oc2cc(O)cc(O)c12`, the Potency result was “inactive”.

In the case of `COc1ccccc1-c1nc(-c2ccc(Br)cc2)no1`, the Potency was active: 12.6 µM.

On to `Oc1ccccc1-c1nnc(COc2ccc(Cl)cc2Cl)o1`, for which the Potency is active: 12.6 µM.

(Values after PubChem BioAssay AID411 (National Center for Advancing Translational Sciences (NCATS), 2006).)
